The list shows a part of the results.
B1: PhoQ; a variant is named by its letters at X, in order, P23837 (parent)
chain: MKKLLRLFFPLSLRVRFLLATAAVVLVLSLAYGMVALIGYSVSFDKTTFRLLRGESNLFYTLAKWENNKLHVELPENIDKQSPTMTLIYDENGQLLWAQRDVPWLMKMIQPDWLKSNGFHEIEADVNDTSLLLSGDHSIQQQLQEVREDDDDAEMTHSVAVNVYPATSRMPKLTIVVVDTIPVELKSSYMVWSWFIYVLSANLLLVIPLLWVAAWWSLRPIEALAKEVRELEEHNRELLNPATTRELTSLVRNLNRLLKSERERYDKYRTTLTDLTHSLKTPLXXLQXXLRSLRSEKMSVSDAEPVMLEQISRISQQIGYYLHRASMRGGTLLSRELHPVAPLLDNLTSALNKVYQRKGVNISLDISPEISFVGEQNDFVEVMGNVLDNACKYCLEFVEISARQTDEHLYIVVEDDGPGIPLSKREVIFDRGQRVDTLRPGQGVGLAVAREITEQYEGKIVAGESMLGGARMEVIFGRQHSAPKDE

Variants of: B1
Assay: enrichment ratio after two sorts for PhoP signalling (ratio (wild type AVST 3.29)); higher = more functional
Conditions: with PhoP (E. coli)
Work on LYPF yielded an enrichment ratio of at most 0.25. Work on DKLT yielded an enrichment ratio of at most 0.25. For WMNR, the enrichment ratio was at most 0.25. Variant LVYK has an enrichment ratio of at most 0.25. FWLA was tested, and the enrichment ratio was at most 0.25. With SSMH the enrichment ratio was 8.25. Work on MFRP yielded an enrichment ratio of at most 0.25. For CMLL, the enrichment ratio was at most 0.25. With GQTI the enrichment ratio was at most 0.25. In the case of NGPS, the enrichment ratio is reported as 0.465. IDKH was tested, and the enrichment ratio was at most 0.25. Work on SVWI yielded an enrichment ratio of at most 0.25. With KIPV the enrichment ratio was at most 0.25. With LAFY the enrichment ratio was 1.35. For MHDL, the enrichment ratio was at most 0.25. MMIS was tested, and the enrichment ratio was at most 0.25. Work on HCHV yielded an enrichment ratio of at most 0.25. In the case of VCEY, the enrichment ratio is reported as at most 0.25. For VLTM, the enrichment ratio was at most 0.25. With MEAY the enrichment ratio was 13. Variant DSVK has an enrichment ratio of at most 0.25. YPYL was tested, and the enrichment ratio was at most 0.25. For WSQM, the enrichment ratio was at most 0.25. With RKGL the enrichment ratio was at most 0.25. Variant DNQH has an enrichment ratio of at most 0.25. With MRVN the enrichment ratio was at most 0.25. Work on MNYV yielded an enrichment ratio of 3.49. Work on PLKK yielded an enrichment ratio of at most 0.25. For FKPL, the enrichment ratio was at most 0.25. GEFE gave an enrichment ratio of at most 0.25. In the case of AETD, the enrichment ratio is reported as at most 0.25. Variant DYLG has an enrichment ratio of at most 0.25. In the case of SGYM, the enrichment ratio is reported as 0.404. HLPQ gave an enrichment ratio of at most 0.25. In the case of IDEC, the enrichment ratio is reported as at most 0.25. Variant YAFV has an enrichment ratio of at most 0.25. In the case of IETD, the enrichment ratio is reported as at most 0.25. Variant KLHH has an enrichment ratio of at most 0.25. Variant PQNC has an enrichment ratio of at most 0.25. In the case of EHAN, the enrichment ratio is reported as 2.57. IPVI gave an enrichment ratio of at most 0.25. With QVWE the enrichment ratio was 6.13. For EGWL, the enrichment ratio was at most 0.25. APPF was tested, and the enrichment ratio was at most 0.25. With VSER the enrichment ratio was at most 0.25. In the case of ENGH, the enrichment ratio is reported as at most 0.25. Work on AYRT yielded an enrichment ratio of at most 0.25. For FRKF, the enrichment ratio was at most 0.25. QINV gave an enrichment ratio of at most 0.25. For DTHH, the enrichment ratio was at most 0.25. In the case of LNNE, the enrichment ratio is reported as at most 0.25. KEDW was tested, and the enrichment ratio was at most 0.25. For RIQD, the enrichment ratio was at most 0.25. With PYYR the enrichment ratio was at most 0.25. Work on THEW yielded an enrichment ratio of at most 0.25. KRPA was tested, and the enrichment ratio was at most 0.25. HRPH showed an enrichment ratio of at most 0.25. Work on DSVQ yielded an enrichment ratio of at most 0.25. HILL was tested, and the enrichment ratio was at most 0.25. FANG was tested, and the enrichment ratio was at most 0.25. GNSI showed an enrichment ratio of 4.37. Work on YLMT yielded an enrichment ratio of at most 0.25. Work on QWPL yielded an enrichment ratio of at most 0.25. With HGVV the enrichment ratio was at most 0.25. NCMM showed an enrichment ratio of at most 0.25. In the case of KAFR, the enrichment ratio is reported as at most 0.25. For YGKD, the enrichment ratio was at most 0.25. Work on VAWN yielded an enrichment ratio of at most 0.25. In the case of ARGL, the enrichment ratio is reported as at most 0.25. VTHF showed an enrichment ratio of at most 0.25. Variant ILNA has an enrichment ratio of at most 0.25. AFSR gave an enrichment ratio of at most 0.25. In the case of ERRK, the enrichment ratio is reported as at most 0.25. For GCFF, the enrichment ratio was at most 0.25. IRVF was tested, and the enrichment ratio was at most 0.25. With RFNF the enrichment ratio was at most 0.25. MSDH was tested, and the enrichment ratio was at most 0.25. HEPT showed an enrichment ratio of at most 0.25. TLIG was tested, and the enrichment ratio was at most 0.25. Variant RKTC has an enrichment ratio of at most 0.25. With DPAQ the enrichment ratio was at most 0.25. For FTRI, the enrichment ratio was at most 0.25. In the case of GVYH, the enrichment ratio is reported as at most 0.25. Variant DPEW has an enrichment ratio of at most 0.25. Work on SMSA yielded an enrichment ratio of 14.6. AVNT showed an enrichment ratio of at most 0.25. In the case of PNWL, the enrichment ratio is reported as at most 0.25. Work on AWGT yielded an enrichment ratio of at most 0.25. ILSE gave an enrichment ratio of at most 0.25. AIIL gave an enrichment ratio of 1.11. VIYT showed an enrichment ratio of at most 0.25. Variant LAFM has an enrichment ratio of 1.77. In the case of RAWM, the enrichment ratio is reported as at most 0.25. Work on VSCS yielded an enrichment ratio of at most 0.25. HGQR showed an enrichment ratio of at most 0.25. VQMT gave an enrichment ratio of at most 0.25. Variant TKKE has an enrichment ratio of at most 0.25. Work on PSDV yielded an enrichment ratio of at most 0.25. VANP was tested, and the enrichment ratio was at most 0.25. In the case of KFHE, the enrichment ratio is reported as at most 0.25. YICC showed an enrichment ratio of at most 0.25. Variant SGDG has an enrichment ratio of at most 0.25. Work on NWMF yielded an enrichment ratio of at most 0.25. With LMHM the enrichment ratio was at most 0.25. Variant YKTE has an enrichment ratio of at most 0.25. TCRQ showed an enrichment ratio of at most 0.25. For MNNF, the enrichment ratio was 5.86. With DDMM the enrichment ratio was at most 0.25. Variant VGPE has an enrichment ratio of at most 0.25. In the case of YKNE, the enrichment ratio is reported as at most 0.25. WYML showed an enrichment ratio of at most 0.25. For IQKW, the enrichment ratio was at most 0.25. Work on DWEF yielded an enrichment ratio of at most 0.25. WRRT showed an enrichment ratio of at most 0.25. QTFW gave an enrichment ratio of at most 0.25. WFQD was tested, and the enrichment ratio was at most 0.25. Work on PCII yielded an enrichment ratio of at most 0.25. Variant MTEP has an enrichment ratio of at most 0.25. For FVYC, the enrichment ratio was at most 0.25. In the case of DTCL, the enrichment ratio is reported as 0.261. For WLGK, the enrichment ratio was at most 0.25. Variant NPNF has an enrichment ratio of at most 0.25. Variant KECL has an enrichment ratio of at most 0.25. DATW gave an enrichment ratio of at most 0.25. In the case of NADV, the enrichment ratio is reported as at most 0.25. With EEYG the enrichment ratio was at most 0.25. For RISR, the enrichment ratio was at most 0.25. With DAWC the enrichment ratio was at most 0.25. In the case of WTGP, the enrichment ratio is reported as at most 0.25. YCNN gave an enrichment ratio of at most 0.25. VFLE showed an enrichment ratio of at most 0.25. PYQQ gave an enrichment ratio of at most 0.25. In the case of DTHR, the enrichment ratio is reported as at most 0.25. Variant IFKG has an enrichment ratio of at most 0.25. For FDKT, the enrichment ratio was at most 0.25. HYLM showed an enrichment ratio of at most 0.25. In the case of RCIG, the enrichment ratio is reported as at most 0.25. In the case of IGNV, the enrichment ratio is reported as at most 0.25. For WGYN, the enrichment ratio was at most 0.25. For VIAS, the enrichment ratio was at most 0.25. FTFF showed an enrichment ratio of at most 0.25. Work on TCPE yielded an enrichment ratio of at most 0.25. VGWI was tested, and the enrichment ratio was 1.26. ICSR gave an enrichment ratio of at most 0.25. PLRC gave an enrichment ratio of at most 0.25. Variant HLPI has an enrichment ratio of 0.276. With WKKG the enrichment ratio was at most 0.25. With LQEK the enrichment ratio was at most 0.25. For IGWL, the enrichment ratio was at most 0.25. NGIA was tested, and the enrichment ratio was at most 0.25. KTMW was tested, and the enrichment ratio was at most 0.25. With DNKW the enrichment ratio was at most 0.25. Variant SGIM has an enrichment ratio of 23.7. In the case of FWFE, the enrichment ratio is reported as at most 0.25. Work on KIWL yielded an enrichment ratio of at most 0.25. For MLSH, the enrichment ratio was at most 0.25. FYCP gave an enrichment ratio of at most 0.25. Variant AKCI has an enrichment ratio of 10.1. For IFVG, the enrichment ratio was at most 0.25. Work on TDRF yielded an enrichment ratio of at most 0.25. Work on SLMM yielded an enrichment ratio of 5.51. AAAS was tested, and the enrichment ratio was 2.16. For YYMP, the enrichment ratio was at most 0.25. Work on MDDN yielded an enrichment ratio of at most 0.25. Variant SFEW has an enrichment ratio of at most 0.25. Variant WNPQ has an enrichment ratio of at most 0.25. For GHIH, the enrichment ratio was at most 0.25. In the case of EVPV, the enrichment ratio is reported as at most 0.25. With IQMF the enrichment ratio was at most 0.25. Work on SESC yielded an enrichment ratio of 18.4. In the case of SRQN, the enrichment ratio is reported as at most 0.25. RMYT gave an enrichment ratio of at most 0.25. In the case of MCFM, the enrichment ratio is reported as 8.33. For NTWD, the enrichment ratio was at most 0.25. ALTM gave an enrichment ratio of 5.06. For WCTF, the enrichment ratio was at most 0.25. For KCGT, the enrichment ratio was at most 0.25. In the case of TQWV, the enrichment ratio is reported as 7.42. With IPNS the enrichment ratio was at most 0.25. WNPD showed an enrichment ratio of at most 0.25. Work on AAGC yielded an enrichment ratio of at most 0.25. KMWQ gave an enrichment ratio of at most 0.25. RTLC gave an enrichment ratio of at most 0.25. Work on NAFE yielded an enrichment ratio of at most 0.25. With VHIR the enrichment ratio was at most 0.25. In the case of RCPC, the enrichment ratio is reported as at most 0.25. Variant KNGE has an enrichment ratio of at most 0.25. In the case of FGKH, the enrichment ratio is reported as at most 0.25. For MSTH, the enrichment ratio was at most 0.25. Variant SNQD has an enrichment ratio of at most 0.25. In the case of SYTE, the enrichment ratio is reported as at most 0.25. Work on IPAR yielded an enrichment ratio of at most 0.25. MHPE gave an enrichment ratio of at most 0.25. RWLT showed an enrichment ratio of at most 0.25. EYNI showed an enrichment ratio of at most 0.25.

Source: a collection of fitness landscapes (doi:10.1126/science.1257360)
